# The list shows a part of the results. At the low end of the ranking, values are background and their order means little.
# Biological target: GST-SBP-SLBP (stem-loop binding protein) (UniProt Q14493)
# Test: targeted RNA Bind-n-Seq;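 also: DESeq read counts versus GST-SBP nonspecific binding control pulldown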
# Settings: RBNS binding buffer: 25 mM Tris pH 7.5, 150 mM KCl, 3 mM MgCl2, 0.1% Tween, 0.5 mg/mL BSA, 1 mM DTT; 27 nM protein, 750 pM RNA pool; temperature not stated; high values mean tight binding
row,Sequence,binding signal (log2 fold change)
1,GGUCACGUCUCAAUCAACUCUUUUUCCAGGGAAAACCCUGGCUAUGUCAACAGCUCGCAGUCAAG,-0.0596
2,GGUCACGUCUCAAUCAACUCUAUCUCAGGAGUUUACUCCUGCAAUUUCAACAGCUCGCAGUCAAG,-0.0904
3,GGUCACGUCUCAAUCAACUCGUUUUCAGGAGUUUACUCCUGCAUAUUCAACAGCUCGCAGUCAAG,0.217
4,GGUCACGUCUCAAUCAACUCUUCGUCCAGGGAAAACCCUGGCAAUUUCAACAGCUCGCAGUCAAG,-0.25
5,GGUCACGUCUCAAUCAACUCUUUCCCAGGAGUUUCCUCCUGCUAUUUCAACAGCUCGCAGUCAAG,-0.0117
6,GGUCACGUCUCAAUCAACUCAGUUUCCAGGGAAAUCCCUGGUUUUUUCAACAGCUCGCAGUCAAG,-0.263
7,GGUCACGUCUCAAUCAACUCUUUCUCCAGGGAAAACCCUGGUUAUCUCAACAGCUCGCAGUCAAG,0.0909
8,GGUCACGUCUCAAUCAACUCUUUCUCCAGGGAAAUCCCUGGCAAACUCAACAGCUCGCAGUCAAG,-0.0739
9,GGUCACGUCUCAAUCAACUCCUCCGAGGGGGGGAAAACCCCUUUACCCUCACAUUCAACAGCUCGCAGUCAAG,0.147
10,GGUCACGUCUCAAUCAACUCAUCUUCAGGAGUUUCCUCCUGCAAUUUCAACAGCUCGCAGUCAAG,-0.0156
11,GGUCACGUCUCAAUCAACUCCAAAGAGGGGGGGAAAACCCCUUUACCCUCAUUAUCAACAGCUCGCAGUCAAG,0.199
12,GGUCACGUCUCAAUCAACUCAACGGCAGGAGUUUACUCCUGGAAUUUCAACAGCUCGCAGUCAAG,-0.148
13,GGUCACGUCUCAAUCAACUCAUUAGAGGGGGGGAAAACCCCUUUACCCUCACACUCAACAGCUCGCAGUCAAG,0.000745
14,GGUCACGUCUCAAUCAACUCUAUCUCCAGGGAAAACCCUGGUUAAUUCAACAGCUCGCAGUCAAG,0.145
15,GGUCACGUCUCAAUCAACUCUUUCUCCAGGGAAACCCCUGGCUAUGUCAACAGCUCGCAGUCAAG,-0.185
16,GGUCACGUCUCAAUCAACUCAUACGAGGGGGGGAAAACCCCUUUACCCUCAACCUCAACAGCUCGCAGUCAAG,-0.357
17,GGUCACGUCUCAAUCAACUCAUUUCCCAGGGAAACCCCUGGUAUUCUCAACAGCUCGCAGUCAAG,0.0526
18,GGUCACGUCUCAAUCAACUCAUCAGAGGGGGGGAAAACCCCUUUGCCCUCAAUAUCAACAGCUCGCAGUCAAG,-0.0333
19,GGUCACGUCUCAAUCAACUCACAAGAGGGGGGGAAAACCCCUUUACCCUCGAUAUCAACAGCUCGCAGUCAAG,0.383
20,GGUCACGUCUCAAUCAACUCUUUUGCAGGAGUUUUCUCCUGGUAUUUCAACAGCUCGCAGUCAAG,-0.153
21,GGUCACGUCUCAAUCAACUCUAUCCCAGGAGUUUACUCCUGCAAACUCAACAGCUCGCAGUCAAG,0.0981
22,GGUCACGUCUCAAUCAACUCAACGCCAGGAGUUUACUCCUGUUAAUUCAACAGCUCGCAGUCAAG,0.227
23,GGUCACGUCUCAAUCAACUCAUUCCCCAGGGAAACCCCUGGUAUACUCAACAGCUCGCAGUCAAG,-0.161
24,GGUCACGUCUCAAUCAACUCAUCGCCAGGAGUUUCCUCCUGCUAUCUCAACAGCUCGCAGUCAAG,0.12
25,GGUCACGUCUCAAUCAACUCUUCCUCAGGAGUUUACUCCUGCUUUUUCAACAGCUCGCAGUCAAG,0.0704

row,Sequence,binding signal (log2 fold change)
1,GGUCACGUCUCAAUCAACUCUAUCCCAGGAGUUUUCUCCUGCUAUUUCAACAGCUCGCAGUCAAG,0.177
2,GGUCACGUCUCAAUCAACUCAACUCCAGGAGUUUCCUCCUGUUUUCUCAACAGCUCGCAGUCAAG,-0.1
3,GGUCACGUCUCAAUCAACUCAACUCCCAGGGAAAUCCCUGGCUUAUUCAACAGCUCGCAGUCAAG,0.0164
4,GGUCACGUCUCAAUCAACUCACAAGAGGGGGGGAAAACCCCUUUGCCCUCACUAUCAACAGCUCGCAGUCAAG,-0.233
5,GGUCACGUCUCAAUCAACUCUACUUCCAGGGAAAUCCCUGGCUUUUUCAACAGCUCGCAGUCAAG,-0.0329
6,GGUCACGUCUCAAUCAACUCAUCUUCAGGAGUUUACUCCUGCUAAUUCAACAGCUCGCAGUCAAG,0.211
7,GGUCACGUCUCAAUCAACUCUAUCUCAGGAGUUUACUCCUGCUAAUUCAACAGCUCGCAGUCAAG,0.0625
8,GGUCACGUCUCAAUCAACUCAUCAGAGGGGGGGAAAACCCCUUUACCCUCACCAUCAACAGCUCGCAGUCAAG,-0.238
9,GGUCACGUCUCAAUCAACUCUUUUCCCAGGGAAAGCCCUGGCAAUCUCAACAGCUCGCAGUCAAG,0.059
10,GGUCACGUCUCAAUCAACUCAGUCCCAGGAGUUUUCUCCUGCUUUUUCAACAGCUCGCAGUCAAG,-0.0613
11,GGUCACGUCUCAAUCAACUCUUAAGAGGGGGGGAAAACCCCUUUACCCUCCACUUCAACAGCUCGCAGUCAAG,-0.342
12,GGUCACGUCUCAAUCAACUCAUCUCCAGGAGUUUACUCCUGCUAACUCAACAGCUCGCAGUCAAG,0.114
13,GGUCACGUCUCAAUCAACUCAUCCGAGGGGGGGAAAACCCCUUUACCCUCAAAUUCAACAGCUCGCAGUCAAG,0.0764
14,GGUCACGUCUCAAUCAACUCUUCUCCCAGGGAAAACCCUGGCAAUUUCAACAGCUCGCAGUCAAG,0.149
15,GGUCACGUCUCAAUCAACUCCCUCGAGGGGGGGAAAACCCCUUUACCCUCCAUUUCAACAGCUCGCAGUCAAG,-0.161
16,GGUCACGUCUCAAUCAACUCAAUAGAGGGGGGGAAAACCCCUUUGCCCUCACAUUCAACAGCUCGCAGUCAAG,-0.104
17,GGUCACGUCUCAAUCAACUCAUCUUCAGGAGUUUGCUCCUGUUUUUUCAACAGCUCGCAGUCAAG,-0.0673
18,GGUCACGUCUCAAUCAACUCAACUUCAGGAGUUUUCUCCUGCAAUGUCAACAGCUCGCAGUCAAG,0.0446
19,GGUCACGUCUCAAUCAACUCUAGUCCCAGGGAAAGCCCUGGUUUUUUCAACAGCUCGCAGUCAAG,-0.0134
20,GGUCACGUCUCAAUCAACUCUUCUCCCAGGGAAAACCCUGGCUAACUCAACAGCUCGCAGUCAAG,0.211
21,GGUCACGUCUCAAUCAACUCAACUUCAGGAGUUUCCUCCUGUAAUUUCAACAGCUCGCAGUCAAG,-0.169
22,GGUCACGUCUCAAUCAACUCAAUGUCAGGAGUUUCCUCCUGUUUACUCAACAGCUCGCAGUCAAG,-0.00977
23,GGUCACGUCUCAAUCAACUCUUUAGAGGGGGGGAAAACCCCUUUGCCCUCAUAUUCAACAGCUCGCAGUCAAG,0.0919
24,GGUCACGUCUCAAUCAACUCAUUUCCCAGGGAAACCCCUGGCUUAUUCAACAGCUCGCAGUCAAG,-0.092
25,GGUCACGUCUCAAUCAACUCUACGCCAGGAGUUUACUCCUGUAUUUUCAACAGCUCGCAGUCAAG,-0.0687

row,Sequence,binding signal (log2 fold change)
1,GGUCACGUCUCAAUCAACUCAUCCUCCAGGGAAAGCCCUGGUUUAUUCAACAGCUCGCAGUCAAG,-0.215
2,GGUCACGUCUCAAUCAACUCCUAAGAGGGGGGGAAAACCCCUUUACCCUCCAUUUCAACAGCUCGCAGUCAAG,0.0366
3,GGUCACGUCUCAAUCAACUCUUUUUCAGGAGUUUACUCCUGUAUAUUCAACAGCUCGCAGUCAAG,-0.102
4,GGUCACGUCUCAAUCAACUCUUCCGAGGGGGGGAAAACCCCUUUACCCUCACAUUCAACAGCUCGCAGUCAAG,-0.296
5,GGUCACGUCUCAAUCAACUCAACUCCCAGGGAAAGCCCUGGUAAACUCAACAGCUCGCAGUCAAG,-0.0848
6,GGUCACGUCUCAAUCAACUCUUCCUCCAGGGAAAGCCCUGGUUAUCUCAACAGCUCGCAGUCAAG,0.0356
7,GGUCACGUCUCAAUCAACUCCCACGAGGGGGGGAAAACCCCUUUACCCUCAUACUCAACAGCUCGCAGUCAAG,-0.0469
8,GGUCACGUCUCAAUCAACUCUCAAGAGGGGGGGAAAACCCCUUUACCCUCAUCGUCAACAGCUCGCAGUCAAG,0.0311
9,GGUCACGUCUCAAUCAACUCUUUCCCCAGGGAAAACCCUGGUAAUUUCAACAGCUCGCAGUCAAG,-0.172
10,GGUCACGUCUCAAUCAACUCUAUUCCCAGGGAAAUCCCUGGUAUUUUCAACAGCUCGCAGUCAAG,-0.098
11,GGUCACGUCUCAAUCAACUCUUUCCCAGGAGUUUUCUCCUGCAAUCUCAACAGCUCGCAGUCAAG,-0.069
12,GGUCACGUCUCAAUCAACUCUACUCCCAGGGAAAUCCCUGGCUAACUCAACAGCUCGCAGUCAAG,-0.251
13,GGUCACGUCUCAAUCAACUCUUCUCCCAGGGAAAUCCCUGGCAAUCUCAACAGCUCGCAGUCAAG,-0.0579
14,GGUCACGUCUCAAUCAACUCAUCGUCAGGAGUUUACUCCUGUUUUCUCAACAGCUCGCAGUCAAG,0.209
15,GGUCACGUCUCAAUCAACUCAACGCCAGGAGUUUCCUCCUGUAUUCUCAACAGCUCGCAGUCAAG,0.196
16,GGUCACGUCUCAAUCAACUCAGUCUCAGGAGUUUACUCCUGCUUUCUCAACAGCUCGCAGUCAAG,0.213
17,GGUCACGUCUCAAUCAACUCUUCGUCAGGAGUUUCCUCCUGUUAUUUCAACAGCUCGCAGUCAAG,0.105
18,GGUCACGUCUCAAUCAACUCUUCUCCAGGAGUUUACUCCUGUAUAUUCAACAGCUCGCAGUCAAG,-0.305
19,GGUCACGUCUCAAUCAACUCAUCGCCAGGAGUUUUCUCCUGUAUUCUCAACAGCUCGCAGUCAAG,0.026
20,GGUCACGUCUCAAUCAACUCUACUCCCAGGGAAACCCCUGGCAUUUUCAACAGCUCGCAGUCAAG,-0.0513
21,GGUCACGUCUCAAUCAACUCAGUUUCAGGAGUUUUCUCCUGUUUUUUCAACAGCUCGCAGUCAAG,-0.331
22,GGUCACGUCUCAAUCAACUCUUCGUCCAGGGAAACCCCUGGCUAUUUCAACAGCUCGCAGUCAAG,-0.26
23,GGUCACGUCUCAAUCAACUCCCUCGAGGGGGGGAAAACCCCUUUACCCUCAAAAUCAACAGCUCGCAGUCAAG,0.14
24,GGUCACGUCUCAAUCAACUCUUCCUCCAGGGAAAGCCCUGGCUUAUUCAACAGCUCGCAGUCAAG,-0.0469
